For 4 molecules, yeast fitness gain results are on record in the supplement of paper PMC11741623.

First the molecules themselves.
B1: WDR27, A2RRH5 (protein)
chain: MENPQDIFSSNGGCLSDIVIEKYLVESKESVSHVQLACSMQDCAFPLDGTELCIWNTKDPSHQLLILRGHHQPITAMAFGNKVNPLLICSASLDYVIMWNLDECREKVLQGLVPRGTVMGSLLGKVLCLQLSLDDHVVAVCAGNKIFMLDIETQAVRAELQGHLGPVTAVEFCPWRAGTLISASEDRGFKVWDHCTGSLIYSSSVLSAYPLLSLFIDAESRQLVTGCADGQLWIFSLMDGHHYRRVARVDLRKKTETFSTRRVKSGLCSQPEESQLPSTSALGKGEQVEVTFPVLRLAPCDLSLIPNSACGCLSSENTRCVWIGSSVGLFVFNLANLEVEAALYYKDFQSLSILLAGSCALRNRTADQKVLCLLASLFGGKIAVLEINPAALVRAQQCPSMGQSLSVPASSCVLPTSPLYLGIAKEKSTKAASEQRRAARNVMKDQRLVFHSKVRSSGYASAPHVTMFSPKTNIKSEGKGSSRSRSSCAREAYPVECAVPTKPGPQVAAAPTCTRVCCIQYSGDGQWLACGLANHLLLVFDASLTGTPAVFSGHDGAVNAVCWSQDRRWLLSAARDGTLRMWSARGAELALLLGKDMFSKPIQSAQFYYIDAFILLSSGPEFQLLRYHIDTCKDEIKRYKQKSKSKLICRLSTTGAVDMTSLSAVNDFYSHIVLAAGRNRTVEVFDLNAGCSAAVIAEAHSRPVHQICQNKGSSFTTQQPQAYNLFLTTAIGDGMRLWDLRTLRCERHFEGHPTRGYPCGIAFSPCGRFAACGAEDRHAYVYEMGSSTFSHRLAGHTDTVTGVAFNPSAPQLATATLDGKLQLFLAE
B2: HMGB2, P26583 (protein)
chain: MGKGDPNKPRGKMSSYAFFVQTCREEHKKKHPDSSVNFAEFSKKCSERWKTMSAKEKSKFEDMAKSDKARYDREMKNYVPPKGDKKGKKKDPNAPKRPPSAFFLFCSEHRPKIKSEHPGLSIGDTAKKLGEMWSEQSAKDKQPYEQKAAKLKEKYEKDIAAYRAKGKSEAGKKGPGRPTGSKKKNEPEDEEEEEEEEDEDEEEEDEDEE
B3: NGFRAP1, Q00994 (protein)
chain: MANIHQENEEMEQPMQNGEEDRPLGGGEGHQPAGNRRGQARRLAPNFRWAIPNRQINDGMGGDGDDMEIFMEEMREIRRKLRELQLRNCLRILMGELSNHHDHHDEFCLMP
B4: GRPEL2, Q8TAA5 (protein)
chain: MAVRSLWAGRLRVQRLLAWSAAWESKGWPLPFSTATQRTAGEDCRSEDPPDELGPPLAERALRVKAVKLEKEVQDLTVRYQRAIADCENIRRRTQRCVEDAKIFGIQSFCKDLVEVADILEKTTECISEESEPEDQKLTLEKVFRGLLLLEAKLKSVFAKHGLEKLTPIGDKYDPHEHELICHVPAGVGVQPGTVALVRQDGYKLHGRTIRLARVEVAVESQRRL

The other results are listed elsewhere or left out. Interaction screen of human proteins with wild-type SARS-CoV-2 proteins by split-DHFR complementation in yeast, 1 µg/mL methotrexate. Value = fitness of the pair (three or more lineages) minus that of the viral protein without a human partner, on a scale set by negative (0) and fused positive (1) controls, mean of up to three cultures; higher = more likely to interact. Active = false discovery rate below 0.05 (one-sided t-test) in at least one culture. Nearly all pairs are not hits, and differences among them are mostly noise (correlation between cultures about 0.3); most hits were seen in one culture only. Human sequences are the Swiss-Prot entries looked up by gene name; the clone may be another isoform. NSP2 values were corrected by the authors for a growth advantage. Listed are human proteins with a hit and a random twelfth of the others.

The first assay has as its target SARS-CoV-2 E. As to the kind of experiment: yeast fitness gain over the viral ORF with no human partner (scaled fitness); higher = more likely to interact. Here is the method:
(§1)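 Split mouse DHFR complementation in pooled diploid yeast: human ORFeome clones carry one fragment and viral ORFs the other; barcoded lineages compete in 1 µg/mL methotrexate and fitness is read by barcode sequencing in up to three cultures.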
As to B1, the yeast fitness gain was inactive: -0.075.

As to B2, the yeast fitness gain was inactive: 0.121.

B3: the yeast fitness gain was inactive: 0.0275.

In the case of B4, the yeast fitness gain is inactive: 0.0443.

In a further assay the target is SARS-CoV-2 M. The assay is described as above. How it is done:
as §1
Take B1: the yeast fitness gain was inactive: 0.0976.

As to B2, the yeast fitness gain is inactive: -0.1.

For the molecule B3, the yeast fitness gain is inactive: -0.0412.

Regarding B4, the yeast fitness gain is inactive: 0.0821.

For the next assay, the target named is SARS-CoV-2 NSP10. The assay is described as above. Here is the method:
as §1
Turning to B1, the yeast fitness gain is inactive: 0.0535.

Turning to B2, the yeast fitness gain is inactive: 0.0118.

As to B3, the yeast fitness gain is inactive: 0.0664.

For B4, the yeast fitness gain is inactive: 0.00173.

The next assay concerns the target SARS-CoV-2 NSP12. The description is as above. How it is done:
as §1
Take B1: the yeast fitness gain was inactive: -0.0419.

Take B2: the yeast fitness gain is inactive: -0.078.

On to B3, for which the yeast fitness gain is inactive: 0.0611.

In the case of B4, the yeast fitness gain is inactive: 0.0951.

A further assay concerns the target SARS-CoV-2 NSP13. Described as above. Here is the method:
as §1
In the case of B1, the yeast fitness gain was inactive: -0.134.

On to B2, for which the yeast fitness gain is inactive: -0.0529.

As to B3, the yeast fitness gain is inactive: -0.000712.

With B4, the yeast fitness gain is inactive: 0.0168.

For another assay, the target named is SARS-CoV-2 NSP16. The description is as above. How it is done:
as §1
Consider B1, for which the yeast fitness gain was inactive: -0.344.

With B3, the yeast fitness gain is inactive: -0.161.

As for B4, the yeast fitness gain is inactive: -0.2.

A further assay has as its target SARS-CoV-2 NSP2. Described as above. Here is the method: as §1
With B1, the yeast fitness gain is inactive: -0.26.

For the molecule B2, the yeast fitness gain is active: 0.547.

Turning to B3, the yeast fitness gain is inactive: -0.152.

In the case of B4, the yeast fitness gain is inactive: -0.179.

In another assay the target is SARS-CoV-2 NSP4. The assay is described as above. How it is done: as §1
B1: the yeast fitness gain was inactive: -0.000891.

As to B2, the yeast fitness gain is inactive: -0.175.

On to B4, for which the yeast fitness gain is inactive: -0.122.

The target of a further assay is SARS-CoV-2 NSP5. The assay is described as above. How it is done:
as §1
For the molecule B1, the yeast fitness gain was inactive: 0.000105.

With B2, the yeast fitness gain was inactive: 0.0505.

Consider B3, for which the yeast fitness gain was inactive: -0.0176.

On to B4, for which the yeast fitness gain was inactive: 0.0215.

The target of a further assay is SARS-CoV-2 NSP9. The assay is described as above. Here is the method: as §1
Regarding B1, the yeast fitness gain is inactive: 0.107.

With B2, the yeast fitness gain was inactive: -0.0129.

Regarding B3, the yeast fitness gain was inactive: 0.00604.

Regarding B4, the yeast fitness gain is inactive: -0.0431.

The target of another assay is SARS-CoV-2 ORF9B. The assay is described as above. How it is done:
as §1
In the case of B1, the yeast fitness gain was inactive: 0.0142.

With B2, the yeast fitness gain was inactive: -0.00332.

As for B3, the yeast fitness gain is inactive: -0.0187.

For B4, the yeast fitness gain was inactive: 0.00926.

The target of the next assay is SARS-CoV-2 S. Described as above. Here is the method: as §1
For the molecule B1, the yeast fitness gain is inactive: 0.00921.

On to B2, for which the yeast fitness gain is inactive: 0.0158.

B3: the yeast fitness gain is inactive: -0.00753.

B4: the yeast fitness gain is inactive: 0.0457.

The target in the next assay is SARS-CoV-2 N. Described as above. How it is done: as §1
As to B2, the yeast fitness gain is inactive: 0.000305.

B3: the yeast fitness gain is inactive: 0.0661.

For the next assay, the target named is SARS-CoV-2 NSP1. The assay is described as above. Here is the method: as §1
As to B2, the yeast fitness gain is inactive: 0.0221.

Consider B3, for which the yeast fitness gain was inactive: -0.157.

In the case of B4, the yeast fitness gain was inactive: -0.0368.

A further assay deals with SARS-CoV-2 NSP14. The assay is described as above. Here is the method: as §1
With B2, the yeast fitness gain was inactive: -0.445.

B3: the yeast fitness gain was inactive: 0.13.

Regarding B4, the yeast fitness gain was inactive: -0.0324.

Another assay deals with SARS-CoV-2 NSP15. The assay is described as above. How it is done: as §1
As for B2, the yeast fitness gain is inactive: -0.0784.

B3: the yeast fitness gain is inactive: 0.0572.

B4: the yeast fitness gain is inactive: 0.0508.

For another assay, the target named is SARS-CoV-2 NSP6. Described as above. Here is the method:
as §1
As for B2, the yeast fitness gain is inactive: -0.0484.

For the molecule B3, the yeast fitness gain was inactive: -0.0138.

On to B4, for which the yeast fitness gain is inactive: 0.0406.

For a further assay, the target named is SARS-CoV-2 NSP7. The assay is described as above. How it is done: as §1
Consider B2, for which the yeast fitness gain is inactive: 0.0157.

B3: the yeast fitness gain is inactive: 0.0726.

For the molecule B4, the yeast fitness gain is inactive: 0.0203.

The target of the next assay is SARS-CoV-2 NSP8. The description is as above. Here is the method: as §1
For B2, the yeast fitness gain was inactive: 0.0629.

Regarding B4, the yeast fitness gain was inactive: -0.00795.

In the next assay the target is SARS-CoV-2 ORF10. The description is as above. Here is the method:
as §1
In the case of B2, the yeast fitness gain was inactive: 0.00123.

Turning to B3, the yeast fitness gain was inactive: 0.0331.

Consider B4, for which the yeast fitness gain is inactive: 0.0456.

For another assay, the target named is SARS-CoV-2 ORF3A. The assay is described as above. Here is the method:
as §1
B2: the yeast fitness gain was inactive: 0.0493.

For B3, the yeast fitness gain is inactive: -0.0184.

Consider B4, for which the yeast fitness gain was inactive: -0.0437.

For another assay, the target named is SARS-CoV-2 ORF3B. The assay is described as above. Here is the method:
as §1
In the case of B2, the yeast fitness gain is inactive: 0.0143.

Regarding B3, the yeast fitness gain was inactive: 0.0111.

Turning to B4, the yeast fitness gain is inactive: -0.00992.

The next assay deals with SARS-CoV-2 ORF6. Described as above. Here is the method:
as §1
Regarding B2, the yeast fitness gain is inactive: 0.00848.

In the case of B3, the yeast fitness gain is inactive: 0.0322.

Regarding B4, the yeast fitness gain was inactive: -0.00119.

The target of the next assay is SARS-CoV-2 ORF7A. Described as above. Here is the method:
as §1
In the case of B2, the yeast fitness gain was inactive: -0.00364.

Take B3: the yeast fitness gain was inactive: 0.0146.

For the molecule B4, the yeast fitness gain was inactive: 0.0613.

For the next assay, the target named is SARS-CoV-2 ORF7B. The description is as above. How it is done:
as §1
Turning to B2, the yeast fitness gain was inactive: -0.00553.

With B3, the yeast fitness gain was inactive: -0.0323.

With B4, the yeast fitness gain was inactive: -0.0497.

In a further assay the target is SARS-CoV-2 ORF8. The assay is described as above. How it is done: as §1
As for B2, the yeast fitness gain is inactive: 0.022.

As for B3, the yeast fitness gain was inactive: -0.021.

Regarding B4, the yeast fitness gain is inactive: -0.00832.

Another assay deals with SARS-CoV-2 ORF9Bwu (the 73-codon ORF). The description is as above. How it is done:
as §1
Turning to B2, the yeast fitness gain was inactive: -0.0908.

For B4, the yeast fitness gain is inactive: 0.172.
